Hit rate of the full screen: of about 350,000 compounds, about 9,900 (2.8%) were called active. The inconclusive results got no clear call from the source; some entries with a clear call stand among them for comparison. Calls come from the whole dose curve; as a rule, active = well fitted activation curve with a large enough effect; inconclusive = small, poorly fitted or top-dose-only effect; inactive = no such curve, though single readings can be large or run the other way. No potency is given beside an inconclusive call; the fits are too rough.
test: A quantitative high throughput screen for small molecules that induce DNA re-replication in MCF 10a normal breast cells.; note: nearly all actives have a fitted effect of over 50% in size; for activity, positive = re-replication: % of control where 0% means no effect; conditions: MCF 10A DNA re-replication, Hoechst nuclear intensity, 48 h; activity, positive = re-replication: at 46.1 µM (top of the series)
Potency is the fitted concentration of half-maximal effect; tags give direction and shape of the fitted curve.

Row | Compound | Potency | activity, positive = re-replication
1 | COCCCNC(=O)c1c(N)n(Cc2ccco2)c2nc3ccccc3nc12 | active: 11.6 µM | 
2 | C[C@]12CC[C@H](N)CC1=CCC1C2CC[C@@]2(C)C1CC[C@@H]2O (some centres undefined) | inconclusive [activator, full curve, poor fit] | 
3 | COc1cc(/C=C2/C(=O)NC(=O)N(c3ccc(C)cc3)C2=O)cc(OC)c1OC | inconclusive [activator, partial curve, poor fit] | 
4 | CCOC(=O)C(C#N)=C(c1ccccc1)c1ccccc1 | inconclusive [activator, partial curve, poor fit] | 
5 | O=[N+]([O-])c1ccc(C2[C@H]3C(c4ccccc4)=NC4(CCCCC4)N23)cc1 (some centres undefined) | inconclusive [activator, full curve, poor fit] | 
6 | O=C(c1ccc(N2CC3CC(C2)c2cccc(=O)n2C3)c([N+](=O)[O-])c1)N1CCCCC1 (centres undefined) | inconclusive [activator, single point] | 
7 | CNCC(=O)c1ccccc1 | inconclusive [activator, single point] | 
8 | CN1C(=O)C(=Cc2ccccc2OCc2ccc(C(=O)O)cc2)C(=O)N(C)C1=O | inconclusive [activator, single point] | 
9 | c1ccc(CNc2c3c(nc4ccccc24)CCC3)cc1 | inconclusive [activator, single point] | 
10 | Cc1ccc(C(=O)C2CN(C)CC2C(=O)c2ccc(C)cc2)cc1 (centres undefined) | inconclusive [activator, partial curve, poor fit] | 
11 | CC(C)CCn1c(=O)c(C(=O)NCc2ccco2)c(O)c2ccccc21 |  | inactive: 0.179%
12 | COc1ccc2c3c1OC1CC(O)C=CC31CCN(C)C2 (centres undefined) | inactive | 
13 | COc1ccc(CNC(=O)CCC(=O)N2C[C@H]3C[C@H](C2)c2cccc(=O)n2C3)cc1 | inconclusive [activator, full curve, poor fit] | 
14 | CCc1ccc(OCC(=O)N2CCN(Cc3ccc4c(c3)OCO4)CC2)cc1 | inconclusive [activator, single point] | 
15 | O=C(/C=C/c1ccc2c(c1)OCO2)c1c(O)n(CCC2=CCCCC2)c(=O)[nH]c1=O | active: 1.84 µM | 
16 | CCNC(=O)[C@H]1O[C@@H](n2cnc3c(N)ncnc32)[C@H](O)[C@@H]1O |  | inactive: -40.2%
17 | COc1cccc(NP(=O)(Oc2ccc(Cl)cc2)Oc2ccc(Cl)cc2)c1 | inconclusive [activator, single point] | 
18 | Cc1ccc(-c2cc(-c3ccc(C)cc3)[n+](-c3ccc(C(=O)[O-])cc3)c(-c3ccc(C)cc3)c2)cc1 | inconclusive [activator, single point] | 
19 | C/C(=N\NC(=O)c1ccncc1)c1c(O)[nH]c(=O)[nH]c1=O | inconclusive [activator, single point] | 
20 | O=[N+]([O-])c1ccc(N2CCOCC2)c2cccnc12 |  | inactive: 3.94%
21 | O=C(c1cc(F)ccc1F)C1CCCN(Cc2cc(Cl)ccc2O)C1 (centres undefined) | inconclusive [activator, single point] | 
22 | O=c1[nH]c(=S)n(C2CC2)c(O)c1/C=N/Nc1cccc2ccccc12 |  | inactive: -0.861%

Row | Compound | Potency | activity, positive = re-replication
23 | O=C(Cc1cc(=O)oc2cc(O)ccc12)NN=Cc1ccc(N(CCCl)CCCl)cc1 | inconclusive [activator, single point] | 
24 | COc1ccc(Oc2cc(NC(=O)c3nn(C)cc3[N+](=O)[O-])cc([N+](=O)[O-])c2)cc1 | active: 2.06 µM | 
25 | COc1ccccc1N1C(=O)NC(=O)/C(=C/c2ccc3c4c(cccc24)CC3)C1=O |  | inactive: 11.1%
26 | CCOc1ccc(-n2c(O)c(C=Nc3ccc(N(CC)CC)cc3)c(=O)[nH]c2=O)cc1 | inconclusive [activator, full curve, poor fit] | 
27 | COC(=O)C1=C(c2ccc(F)cc2OCc2ccccc2)C[C@@H]2CC[C@H]1N2C(=O)NCc1ccccc1 | inconclusive [activator, partial curve, poor fit] | 
28 | C=CCn1c(O)c(C(C)=Nc2cc(OC)ccc2OC)c(=O)[nH]c1=O | inconclusive [activator, partial curve, poor fit] | 
29 | COc1ccc(C2/C=C\CN(C(=O)Oc3ccc(C(F)(F)F)cc3)CC(=O)N2Cc2ccc(F)cc2)cc1 (centres undefined) | inconclusive [activator, partial curve, poor fit] | 
30 | Cc1ccc(S(=O)(=O)N[C@@H](CCCCN)C(=O)CCl)cc1 | inconclusive [activator, single point] | 
31 | CCn1c(=O)oc2cc(NC(=O)CCl)ccc21 | inconclusive [activator, single point] | 
32 | O=C1NC(=O)N(Cc2ccccc2)C(=O)/C1=C/C=C/c1ccco1 | active: 4.11 µM | 
33 | CCCNS(=O)(=O)c1ccc(OCC(=O)N2CCN(Cc3ccc4c(c3)OCO4)CC2)cc1 | inconclusive [activator, partial curve, poor fit] | 
34 | O=C(c1ccc(Cl)cc1)C1CCCN(C2CCSCC2)C1 (centres undefined) | inconclusive [activator, partial curve] | 
35 | CCCCCCOC(=O)c1ccccc1N | inconclusive [activator, partial curve, poor fit] | 
36 | CC(C)(C)c1cc([N+](=O)[O-])cc(C(C)(C)C)c1O |  | inactive: 13.1%
37 | CC(=NCCN1CCCCC1)c1c(O)[nH]c(=O)[nH]c1=O |  | inactive: -2.44%
38 | CCNC(=O)N1c2ccccc2Sc2ccccc21 | inconclusive [activator, single point] | 
39 | NS(=O)(=O)c1cc(C2(O)NC(=O)c3ccccc32)ccc1Cl (centres undefined) |  | inactive: -42.4%
40 | CCOc1ccc2c(c1)c(C(C)=O)c(C)n2Cc1ccco1 |  | inactive: 10%
41 | CCOc1ccc(-c2cc(C)[n+](CCc3ccc(OC)c(OC)c3)c(-c3ccc(OCC)cc3)c2)cc1 |  | inactive: 14.3%
42 | O=c1c2ccccc2c(C=Nc2ccc(O)cc2)c(O)n1Cc1ccccc1 | inconclusive [activator, single point] | 
43 | CC(C)CC(NC(=O)CCCNC(=O)CCC(=O)OC1O[C@H]2OC3(C)CC[C@H]4[C@H](C)CCC(C1C)C24OO3)C(=O)O (some centres undefined) |  | inactive: 24%
44 | COc1ccccc1N1CCN(C2CCCN(C(=O)COc3ccccc3Cl)C2)CC1 (centres undefined) | inconclusive [activator, partial curve, poor fit] | 

Row | Compound | Potency | activity, positive = re-replication
45 | CCCCCCCSc1cc(OC)c(CCN(C)C)cc1OC | inconclusive [activator, single point] | 
46 | COc1ccc(C(=O)N2CCC3(CC2)OCCO3)cc1 |  | inactive: -21.5%
47 | COC(=O)C1=C(c2cc3ccccc3s2)C[C@@H]2CC[C@H]1N2C(=O)NC1CCCCC1 | active: 20.6 µM | 
48 | COc1ccccc1-n1c(-c2ccc(C)cc2)nc2ccccc2c1=O | inconclusive [activator, partial curve, poor fit] | 
49 | c1ccc(C2c3ccccc3-n3nncc3CN2CC2CCCCC2)cc1 (centres undefined) | inconclusive [activator, single point] | 
50 | O=[N+]([O-])OC1CO[C@H]2C(O[N+](=O)[O-])COC12 (some centres undefined) |  | inactive: -1.96%
51 | NC(N)=NS(=O)(=O)c1ccc(N)cc1 | inconclusive [activator, partial curve, poor fit] | 
52 | O=C1NC(=O)N(Cc2cccs2)C(=O)/C1=C/c1ccc(N2CCOCC2)cc1 | inconclusive [activator, partial curve, poor fit] | 
53 | CC1=CC(=O)OC2CC3OC4C[C@@H](C)C5OC6CC7O[C@]8(C)C/C=C\C9OC%10CC%11OC(CC(C)C%12OCCO%12)CC(O)[C@]%11(C)OC%10CC9OC8C[C@]7(C)O[C@]6(C)CCC5OC4C[C@]3(C)OC12 (some centres undefined) | inconclusive [activator, full curve, poor fit] | 
54 | COC(=O)C1=C(c2ccc(OCc3ccccc3)cc2)C[C@@H]2CC[C@H]1N2C(=O)NC1CCN(Cc2ccccc2)CC1 | inconclusive [activator, partial curve, poor fit] | 
55 | CCCCCCCCCCCCn1ccc(=N)cc1 | inconclusive [activator, partial curve, poor fit] | 
56 | O=c1[nH]c(=O)n(C2CCCCC2)c(O)c1/C=C/C=Nc1ccccc1 | inconclusive [activator, single point] | 
57 | Cc1cc(CN(C)C)c(OC(=O)N(C)C)cc1C | inconclusive [activator, single point] | 
58 | c1ccc2c3c(ccc2c1)OCC1CONC31 (centres undefined) |  | inactive: -15.4%
59 | CN1CCN(C(=O)COc2ccc(Oc3ccccc3)cc2)CC1 | inconclusive [activator, partial curve, poor fit] | 
60 | O=C(Oc1ccc(Br)cc1)C1CC(=O)N(c2ccc(F)cc2)C1 (centres undefined) | inconclusive [activator, single point] | 
61 | Cc1nn(Cc2ccccc2)c(Cl)c1C(=O)Nc1ccc(OC(F)(F)F)cc1 | inconclusive [activator, single point] | 
62 | Cc1nn(C)c(C)c1C1C(C#N)=C(N)Oc2n[nH]c(C)c21 (centres undefined) | inconclusive [activator, full curve, poor fit] | 
63 | COC(=O)C1=C(c2ccc(-c3ccccc3)c(F)c2)C[C@@H]2CC[C@H]1N2C(=O)NCCCOC(C)C | inconclusive [activator, single point] | 
64 | Oc1ccc2c3c1O[C@H]1c4oc5ccccc5c4C[C@@]4(O)[C@@H](C2)N(CC2CC2)CC[C@]314 |  | inactive: 22.5%
